Data on one molecule can be found in US20240317847A1 (Bayer, published 2024).

The target in assay [1] is T1, human IL2Ra (human, UniProt P01589 22-240, limits assumed).
T1 construct: coated on the ELISA plate; also called IL-2 receptor alpha
T1 sequence (looked up): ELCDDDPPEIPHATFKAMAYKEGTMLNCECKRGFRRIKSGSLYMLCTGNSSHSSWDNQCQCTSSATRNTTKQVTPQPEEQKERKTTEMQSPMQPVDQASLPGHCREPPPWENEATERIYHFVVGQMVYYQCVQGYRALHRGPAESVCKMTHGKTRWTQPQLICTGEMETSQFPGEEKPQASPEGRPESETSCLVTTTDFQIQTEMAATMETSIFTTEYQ
The assay is described as follows: ELISA on coated IL2Ra, signal ratio to isotype control TPP-10159 at 3.3E-7 M antibody. Here is the method: IL2RA (Peprotech, Germany, #200-02RC) was coated at 1 or 0 μg/ml (buffer only control) in 30 μl coating buffer (Candor, #113500) per well on a 384 well microtiter plate (Maxisorb, Nunc, #460518) over night at 4-8° C. After two washes with 50 μl/well washing buffer (PBS+0.05% Tween, pH 7.4), the plates were incubated for two hours at room temperature with 50 μl/well SmartBlock (Candor, #113500). After blocking, the plates were washed three times with washing buffer. Then, a dilution series of the respective antibody (1E-7 [M] down to 2E-13 [M]) in PBS+0.05% Tween, 10% SmartBlock were added in 30 μl to the microtiter plate and incubated for 90 min at room temperature. After three additional washes, 30 μl anti mouse IgG HRP-conjugated antibody (Biotechne, HAF007), diluted 1:1000 in PBS+0.05% Tween (pH 7.4), were added per well and incubated for one hour. […] Relative fluorescence was measured with a microtiter plate reader at 535/590 nm.
IgG converted antibodies TPP-were tested for binding to IL2Ra as described in Example 20. The ratios of the signals obtained at an antibody concentration of 3.3E-7 [M] for IgG converted antibody versus the isotype control TPP-10159 were calculated and are shown in Table E22.

Assay [2] deals with T2, rat IL-11 (rat, UniProt Q99MF5 22-199).
T2 construct: Invigate recombinant protein; also called rIL11
T2 sequence: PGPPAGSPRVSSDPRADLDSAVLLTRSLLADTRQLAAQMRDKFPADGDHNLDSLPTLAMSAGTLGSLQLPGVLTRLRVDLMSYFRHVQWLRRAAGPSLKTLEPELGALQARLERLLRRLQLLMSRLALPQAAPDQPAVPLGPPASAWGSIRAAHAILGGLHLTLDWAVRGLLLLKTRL
Kind of assay: SPR (Biacore), 37 C, antibody captured via anti-Fc, IL-11 as analyte. Here is the method: To assess the binding kinetics and affinity of anti-IL-11 bispecific antibodies as well as their species cross-reactivity profile, binding assays were conducted using surface plasmon resonance (SPR). […] Antibodies were captured either via anti-human Fc IgGs (“Human antibody capture kit”, Order No. BR100839, Cytiva) or via anti-mouse Fc IgGs (“Mouse antibody capture kit, Order No. BR100383, Cytiva) covalently amine coupled to a Series S CM5 sensor chip (Cytiva) depending on the isotype. The amine coupling was carried out according to the manufacturer's instructions using 1-ethyl-3-(3-dimethylaminopropyl) carbodiimide hydrochloride (EDC), N-hydroxysuccinimide (NHS) and ethanolamine HCl, pH 8.5 (“Amine Coupling Kit” BR-1000-50, Cytiva.). Human, mouse, cynomolgus or rat IL-11 was used as analyte at several dilutions within the concentration range from 0.05-200 nM. For binding assays with only one concentration 200 nM IL-11 was used. The sensor surface was regenerated with glycine pH 1.7 after each antigen injection. Obtained sensorgrams were double referenced (subtraction of reference flow cell signal and buffer injection) and were fitted to a 1:1 Langmuir binding model to derive kinetic data using the Biacore T200 Evaluation software or the Biacore Insight software.
If no value is reported, there was either no binding or very low binding and multiphasic binding behavior.

In assay [3] the target is T3, murine IL-11 (mouse, UniProt P47873 22-199).
T3 construct: Invigate recombinant protein; biotinylated when immobilized in the Di-complex ELISA; also called mIL11; mIL-11
T3 sequence: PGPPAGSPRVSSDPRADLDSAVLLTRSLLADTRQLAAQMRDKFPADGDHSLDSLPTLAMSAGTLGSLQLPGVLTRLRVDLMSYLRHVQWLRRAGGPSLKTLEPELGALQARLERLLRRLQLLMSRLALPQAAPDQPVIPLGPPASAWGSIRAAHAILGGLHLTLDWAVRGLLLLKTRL
The assay is described as follows: Tri-complex ELISA, mIL-11 + mIL-11Ra-Fc + mgp130-Fc, inhibition of complex formation. Here is the method: In a first step, 25 μl of goat anti human IgG (Sigma, #12136), diluted 1:1000 in coating buffer (Candor, #121125) was coated on the plate at 4° C. overnight. Next day, the plate was washed one time with 50 μl PBST and then blocked with 50 μl SmartBlock (Candor, #113125) for one hour at room temperature (RT). […] After three additional washes of the coated and blocked microtiter plate with PBS-T, 25 μl of each mixture were added and the assay plate was incubated for one hour at room temperature. After three additional washes, anti-mouse-gp130 biotinylated antibody (R&D, #BAF468) or anti-human gp130 biotinylated antibody (R&D, #BAF228), both 1:1000 in 10% SmartBlock PBS-T, was added and incubated for 1 hour at RT. After three additional washes, a Streptavidin-Peroxidase conjugate (Sigma, #S5512) 1:1000 in SmartBlock PBS-T was added and incubated for one hour at room temperature. After a final three washes, AmplexRed (Fisher Scientific, A12222), 1/1000 in PBS, 0,003% H₂O₂, was added as substrate and incubated for 15 min at RT in the dark. Then, the fluorescence was measured with a plate reader at 535/595 nm. Signals from dose responses were used to calculate IC50 values using GraphPad Prism software. Efficacy was calculated as [(signal measured at lowest antibody concentration−signal measured at the highest antibody concentration)×100] divided by (signal measured at lowest antibody concentration−signal measured in the absence of antibody at an IL11 concentration of 8.2E-11 [M]).
IgG converted antibodies were subjected to the experimental assay procedure described in Example 19 and IC50 [M], respectively efficacy (%) were calculated accordingly.

B1: TPP-29536 (antibody, human IgG1, lambda)
heavy: EVQLLESGGGLVQPGGSLRLSCAASGFTFSSYGMHWVRQAPGKGLEWVAVISYDGSYKYYADSVKGRFTISRDNSKNTLYLQMNSLRAEDTAVYYCAAGVPDYWGQGTLVTVSSASTKGPSVFPLAPSSKSTSGGTAALGCLVKDYFPEPVTVSWNSGALTSGVHTFPAVLQSSGLYSLSSVVTVPSSSLGTQTYICNVNHKPSNTKVDKKVEPKSCDKTHTCPPCPAPPVAGPSVFLFPPKPKDTLMISRTPEVTCVVVGVSHEDPEVKFNWYVDGVEVHNAKTKPREEQYNSTYRVVSVLTVLHQDWLNGKEYKCKVSNKQLPSPIEKTISKAKGQPREPQVYTLPPSRDELTKNQVSLTCLVKGFYPSDIAVEWESNGQPENNYKTTPPVLDSDGSFFLYSKLTVDKSRWQQGNVFSCSVMHEALHNHYTQKSLSLSPGK
light: QSVLTQPPSASGTPGQRVTISCSGSSSNIGSDYDVHWYQQLPGTAPKLLIYSNEERPSGVPDRFSGSKSGTSASLAISGLRSEDEADYYCSAWDSSLSGPVFGGGTKLTVLGQPKAAPSVTLFPPSSEELQANKATLVCLISDFYPGAVTVAWKADSSPVKAGVETTTPSKQSNNKYAASSYLSLTPEQWKSHRSYSCQVTHEGSTVEKTVAPTECS
notes: hIgG-lambda-HS (human IgG1 with Fc-silencing mutations)
With B1, the “Antibody/Isotype Control Ratio of IL-2Ra Binding Signals” value in assay [1] is 1.1 ratio. The Kd in assay [2] was 0.25 nM. In assay [3], the “Efficacy (%)” value was determined as 103% and the IC50 was found to be 0.64 nM.
